{
  "source": "paper PMC4336329",
  "about": "(PLoS ONE, 2015)",
  "note": "Out of some 310,000 compounds screened, about 14,000 (4.5%) showed an effect of 50% or more. Effects have a minus sign here. The list shows a part of the results.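 Further: peak tail current of the secondary pulse compared with the same well before compound.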",
  "data": [
    {"target": "human ether-à-go-go-related gene (hERG) potassium channel (human, UniProt Q12809)", "sequence (Q12809 whole entry, looked up)": "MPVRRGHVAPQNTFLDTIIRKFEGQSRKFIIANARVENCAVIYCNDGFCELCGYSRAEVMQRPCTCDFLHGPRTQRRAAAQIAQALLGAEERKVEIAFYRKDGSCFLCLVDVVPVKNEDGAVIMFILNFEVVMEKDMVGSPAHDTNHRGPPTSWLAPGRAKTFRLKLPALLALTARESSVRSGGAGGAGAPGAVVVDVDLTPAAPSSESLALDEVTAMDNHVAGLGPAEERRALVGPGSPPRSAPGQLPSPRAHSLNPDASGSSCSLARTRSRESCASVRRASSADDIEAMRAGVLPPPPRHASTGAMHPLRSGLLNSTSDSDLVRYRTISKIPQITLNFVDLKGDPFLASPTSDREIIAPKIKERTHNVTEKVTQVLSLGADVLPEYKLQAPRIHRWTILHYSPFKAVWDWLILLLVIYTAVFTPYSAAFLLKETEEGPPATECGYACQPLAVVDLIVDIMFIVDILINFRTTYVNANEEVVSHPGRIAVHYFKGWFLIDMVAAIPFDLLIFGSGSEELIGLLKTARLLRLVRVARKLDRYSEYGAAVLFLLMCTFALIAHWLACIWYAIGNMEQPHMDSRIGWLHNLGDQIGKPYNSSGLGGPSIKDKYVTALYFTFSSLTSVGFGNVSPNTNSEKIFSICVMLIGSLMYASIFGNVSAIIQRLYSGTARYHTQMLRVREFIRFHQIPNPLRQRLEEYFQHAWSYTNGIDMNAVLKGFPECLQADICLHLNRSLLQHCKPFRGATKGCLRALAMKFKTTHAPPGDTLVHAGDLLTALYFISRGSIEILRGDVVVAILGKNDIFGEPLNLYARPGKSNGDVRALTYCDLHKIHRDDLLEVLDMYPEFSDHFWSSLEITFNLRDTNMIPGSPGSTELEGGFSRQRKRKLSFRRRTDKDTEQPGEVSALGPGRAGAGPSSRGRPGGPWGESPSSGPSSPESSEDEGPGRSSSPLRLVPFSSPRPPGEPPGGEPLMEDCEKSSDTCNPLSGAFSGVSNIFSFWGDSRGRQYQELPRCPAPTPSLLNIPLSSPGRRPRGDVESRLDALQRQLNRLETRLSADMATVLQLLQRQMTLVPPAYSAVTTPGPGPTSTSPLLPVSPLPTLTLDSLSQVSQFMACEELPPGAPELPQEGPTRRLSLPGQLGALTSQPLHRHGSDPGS", "test": "primary screen, population patch clamp on CHO cells stably expressing hERG", "units": {"hERG current change (%, negative = inhibition) at 10uM": "%"}, "values": [
      {"smiles": "Brc1ccc2[nH]c3nc(SCCN4CCOCC4)nnc3c2c1", "hERG current change (%, negative = inhibition) at 10uM": 14.1},
      {"smiles": "CCC(=O)Nc1ccc2nc3c(=O)[nH]c(=S)[nH]c3nc2c1", "hERG current change (%, negative = inhibition) at 10uM": 39.3},
      {"smiles": "C=CCn1c(SCC(=O)NC2CCCCC2)nc2ccccc2c1=O", "hERG current change (%, negative = inhibition) at 10uM": 19},
      {"smiles": "CCOc1cc2c(cc1OCC)-n1cccc1C(c1cccc(OCC)c1O)NC2.Cl", "note": "(stereo not shown)", "hERG current change (%, negative = inhibition) at 10uM": -48.1},
      {"smiles": "CN(c1ccccc1)S(=O)(=O)c1ccc(C(=O)Nc2nnc(C3CC3)o2)cc1", "hERG current change (%, negative = inhibition) at 10uM": -3.8},
      {"smiles": "Cc1cccc(NC(=O)CSc2nc(=O)n(CCN3CCOCC3)c3c2CCCC3)c1C", "hERG current change (%, negative = inhibition) at 10uM": -23.6},
      {"smiles": "COc1ccccc1N1CCN(C(=O)CSc2nnc3c4ccccc4n(CC(=O)O)c3n2)CC1", "hERG current change (%, negative = inhibition) at 10uM": 9.75},
      {"smiles": "Cc1ccc(C(=O)N2c3ccc(F)cc3CCC2C)o1", "note": "(stereo not shown)", "hERG current change (%, negative = inhibition) at 10uM": 0.746},
      {"smiles": "COC(=O)c1cc(NC(=O)CCc2c(C)nc3ncnn3c2C)cc(C(=O)OC)c1", "hERG current change (%, negative = inhibition) at 10uM": -36.1},
      {"smiles": "CCN(CC(=O)Nc1c(F)cccc1F)C(=O)c1cc2c(cc1Cl)N1CCCCCC1=NS2(=O)=O", "hERG current change (%, negative = inhibition) at 10uM": 14.5},
      {"smiles": "O=c1c2ccccc2nc2n1CC/C2=C\\N1CCN(c2ccc([N+](=O)[O-])cc2)CC1", "hERG current change (%, negative = inhibition) at 10uM": -78.1},
      {"smiles": "CC(C)CN(CC(C)C)C(=O)CS(=O)(=O)Cc1ccccc1", "hERG current change (%, negative = inhibition) at 10uM": 3.13},
      {"smiles": "COc1ccc(Cl)cc1-c1nc(SCC(=O)N(C)CCC#N)n[nH]1", "hERG current change (%, negative = inhibition) at 10uM": 11.9},
      {"smiles": "O=C(CSc1nc(-c2ccccc2)cc(=O)[nH]1)Nc1ccc(F)c(F)c1", "hERG current change (%, negative = inhibition) at 10uM": 26.5},
      {"smiles": "Cc1cc(-c2ccc(Br)cc2)n[nH]1", "hERG current change (%, negative = inhibition) at 10uM": -1.57},
      {"smiles": "CC(C)Cn1cnc2c1c(=O)[nH]c(=O)n2Cc1ccccc1", "hERG current change (%, negative = inhibition) at 10uM": 3.15},
      {"smiles": "COc1ccc(NC(=S)Nn2cnnc2)c(OC)c1", "hERG current change (%, negative = inhibition) at 10uM": 12.9},
      {"smiles": "COCCn1c(C)cc(/C=C2/NC(=O)N(Cc3ccc(C)cc3)C2=O)c1C", "hERG current change (%, negative = inhibition) at 10uM": 12.3},
      {"smiles": "CC(=O)c1c(C)[nH]c(C(=O)C(C)Sc2nnc(NC3CC3)s2)c1C", "note": "(stereo not shown)", "hERG current change (%, negative = inhibition) at 10uM": -22.9},
      {"smiles": "O=C1OC(N2CCN(C(=O)c3ccco3)CC2)c2ccccc21", "note": "(stereo not shown)", "hERG current change (%, negative = inhibition) at 10uM": 5.84},
      {"smiles": "CCCSc1nc(C)cc(C)c1S(C)(=O)=O", "hERG current change (%, negative = inhibition) at 10uM": 8.96},
      {"smiles": "COC(=O)C1=C(C)NC(C)=C(C(=O)OC)C1c1ccc(-c2cccc([N+](=O)[O-])c2)o1", "hERG current change (%, negative = inhibition) at 10uM": -0.354},
      {"smiles": "CCn1c(CCc2ccccc2)nnc1SCC(N)=O", "hERG current change (%, negative = inhibition) at 10uM": 15.7},
      {"smiles": "O=C(CCc1nnc(Cc2ccc3c(c2)OCO3)o1)N(CC1CCC1)CC1CCCO1", "note": "(stereo not shown)", "hERG current change (%, negative = inhibition) at 10uM": 6.04},
      {"smiles": "CC(=O)c1cccc(NC(=O)CN2C(=O)COc3ccc(S(=O)(=O)N4CCOCC4)cc32)c1", "hERG current change (%, negative = inhibition) at 10uM": 15.6},
      {"smiles": "CCC(CC)NC(=O)c1ccc(Cl)cc1", "hERG current change (%, negative = inhibition) at 10uM": 23.2},
      {"smiles": "O=C(O/N=C1\\CCCc2ccccc21)C1CC1", "hERG current change (%, negative = inhibition) at 10uM": 14.4},
      {"smiles": "Cc1onc(-c2c(Cl)cccc2Cl)c1C(=O)c1c[nH]c(C(=O)NCC2CCCO2)c1", "note": "(stereo not shown)", "hERG current change (%, negative = inhibition) at 10uM": 22.9},
      {"smiles": "CCOc1ccc(N=Cc2c(C)[nH]n(-c3nc4ccccc4[nH]3)c2=O)cc1", "hERG current change (%, negative = inhibition) at 10uM": -7.07},
      {"smiles": "C=CC(C)(C)c1[nH]cnc1/C=C1\\NC(=O)C(C(C)C)NC1=O", "note": "(stereo not shown)", "hERG current change (%, negative = inhibition) at 10uM": 3.54},
      {"smiles": "COc1ccc(NC(=O)C2C(c3ccccc3)C2(Cl)Cl)c(OC)c1", "note": "(stereo not shown)", "hERG current change (%, negative = inhibition) at 10uM": 10.3},
      {"smiles": "COc1ccc(OC)c(NC(=O)C2CC(C)=C(C)CC2C(=O)O)c1", "note": "(stereo not shown)", "hERG current change (%, negative = inhibition) at 10uM": -2.07},
      {"smiles": "O=C(CCC1CCCN(Cc2ccc3c(c2)OCCO3)C1)NCc1ccccc1F", "note": "(stereo not shown)", "hERG current change (%, negative = inhibition) at 10uM": -24.2},
      {"smiles": "COc1ccc(OCCC(=O)NC2CCCCC2)cc1", "hERG current change (%, negative = inhibition) at 10uM": 35},
      {"smiles": "Cc1cc(NC(=O)CSc2nc3sc(C)c(C)c3c(=O)n2C2CCCC2)no1", "hERG current change (%, negative = inhibition) at 10uM": 12.4},
      {"smiles": "CC(=O)c1c(N)nc2n(c1=O)CCCCC2", "hERG current change (%, negative = inhibition) at 10uM": 12.8},
      {"smiles": "C=CCNc1nc(N2CCCC2)nc2ccccc12", "hERG current change (%, negative = inhibition) at 10uM": -78.3},
      {"smiles": "O=C(O)c1ccccc1Sc1ncnc2sc3c(c12)CCC3", "hERG current change (%, negative = inhibition) at 10uM": 9.12},
      {"smiles": "CN(CC(=O)Nc1ccccc1Br)C(=O)CNC(=O)c1ccc(Oc2ccccc2)cc1", "hERG current change (%, negative = inhibition) at 10uM": -17.8},
      {"smiles": "COc1ccccc1/C=C/C=N/NC(=O)CN1CCN(S(=O)(=O)c2ccc(C)cc2)CC1", "hERG current change (%, negative = inhibition) at 10uM": -50.2},
      {"smiles": "O=S1(=O)CC/C(=N\\Nc2ccccc2)c2ccsc21", "hERG current change (%, negative = inhibition) at 10uM": 23.2},
      {"smiles": "COC(=O)C(CC(C)C)NC(=O)c1ccc([N+](=O)[O-])c(C)c1", "note": "(stereo not shown)", "hERG current change (%, negative = inhibition) at 10uM": 4.36},
      {"smiles": "CCCNC(=O)C(Cc1cccc(OC)c1)NC(=O)c1ccc(C#N)cc1", "note": "(stereo not shown)", "hERG current change (%, negative = inhibition) at 10uM": -7.8},
      {"smiles": "Cc1csc(NC(=O)CSc2nnc(-c3ccccc3)o2)n1", "hERG current change (%, negative = inhibition) at 10uM": 1.77},
      {"smiles": "O=C(O)c1nccnc1C(=O)Nc1ccccc1N1CCOCC1", "hERG current change (%, negative = inhibition) at 10uM": 0.094},
      {"smiles": "O=C(NCCc1ccc(C(F)(F)F)cc1)C1CC(=O)N(c2ccc3c(c2)OCCO3)C1", "note": "(stereo not shown)", "hERG current change (%, negative = inhibition) at 10uM": -2.97}
    ]}
  ]
}
